Data from patent publication US20160206608A1 (Pfizer Inc., priority 2011, published 2016).

Tested on: 3T3-CD74-ROS tumor xenograft
Assay: 3T3-CD74-ROS xenograft tumor growth
Settings: 20 to 160 mg/kg/day, oral BID

`C[C@@H](Oc1cc(-c2cnn(C3CCNCC3)c2)cnc1N)c1c(Cl)ccc(F)c1Cl` [crizotinib, 3-[(R)-1-(2,6-dichloro-3-fluoro-phenyl)-ethoxy]-5-(1-piperidin-4-yl-1H-pyrazol-4-yl)-pyridin-2-ylamine] was tested, and the “inhibition in tumor growth (in words)” value was “dose-dependent inhibition”.
